Test results taken from PubChem BioAssay AID1458 (National Center for Advancing Translational Sciences (NCATS), 2008).
The campaign covered roughly 210,000 compounds. About 5,900 (2.8%) were called active. The shares of active, inactive and inconclusive entries below differ from those in the screen. Calls come from the whole dose curve; as a rule, active = well fitted activation curve with a large enough effect; inconclusive = small, poorly fitted or top-dose-only effect; inactive = no such curve, though single readings can be large or run the other way. Where the call is inconclusive, the potency comes from a doubtful curve fit.

Assay: qHTS Assay for Enhancers of SMN2 Splice Variant Expression; note: nearly all actives have a fitted effect of over 55% in size
Details: HEK293 SMN2-luciferase splicing reporter, luminescence, 30-36 h; series mostly up to 46.1 µM
Procedure, shortened: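 HEK293 cells carry an SMN2 minigene-luciferase reporter in which exon 7 inclusion puts luciferase in frame. Cells were seeded at 2000 cells/well, attached for 10-12 hours, then exposed to compounds for 30-36 hours at 37C before ONE-Glo luminescence.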
Potency is the fitted concentration of half-maximal effect; tags give direction and shape of the fitted curve.

Compound | Potency
CCOC(=O)N1CCN(C(=O)CN(Cc2ccccc2)S(C)(=O)=O)CC1 | inconclusive: 3.16 µM [activator, single point]
N/C(=N\OC(=O)c1ccco1)c1ccccc1 | active: 22.4 µM
COCCN(C(=O)c1ccco1)c1nnc(-c2ccc(F)cc2)s1 | inconclusive: 11.2 µM [activator, partial curve]
CCC(=O)N1CCCc2cc(S(=O)(=O)NCc3cccs3)ccc21 | inactive
CCc1ccc(-c2cc(C(=O)N/N=C/c3c[nH]c4ccccc34)[nH]n2)cc1 | inactive
O=C1CCCc2c1nn(-c1ccccc1)[n+]2[O-] | inconclusive: 0.0112 µM [activator, full curve, poor fit]
CCCCNC(=O)NCC(=O)Nc1ccc(F)c(F)c1 | inconclusive: 35.5 µM [activator, partial curve, poor fit]
Cc1oc2cc3oc(=O)c(CCC(=O)NCCc4ccccc4F)c(C)c3cc2c1C | inconclusive: 31.6 µM [activator, single point]
CCC1CCc2c(sc(NC(=O)c3ccco3)c2C(N)=O)C1 (stereo unspecified) | active: 17.8 µM
COc1ccc(Nc2nc(-c3ccc(OC)cc3)cs2)cc1 | inconclusive: 35.5 µM [activator, single point]
CN1CCN(/C=N/c2c(C#N)cnn2C)CC1 | inconclusive: 0.01 µM [activator, full curve, poor fit]
COCCn1nnnc1SCC(=O)c1ccccc1 | inconclusive: 0.0045 µM [activator, full curve, poor fit]
COc1ccc(Br)cc1Cn1nnc(C(=O)Nc2cccc(SC)c2)c1N | inactive
COc1ccc(S(=O)(=O)N(CC(=O)N/N=C/c2cccs2)c2ccc(C)cc2)cc1OC | inconclusive: 0.141 µM [activator, full curve, poor fit]
O=C(Nc1ccc2[nH]c3c(c2c1)CCCC3)c1ccco1 | inconclusive: 35.5 µM [activator, single point]
Cc1ccc(N=C/C(C(=O)C(F)(F)F)=C(\O)c2cccs2)cc1 | inconclusive: 20 µM [activator, single point]
CCOc1ccc(NC(=O)CSCC(=O)O)cc1 | inconclusive: 4.47 µM [activator, partial curve]
COc1ccc(CNC(=O)Cn2cccc2C(=O)c2ccccc2C)cc1 | inconclusive: 14.1 µM [activator, partial curve, poor fit]
c1cncc(-c2noc(-c3cccc4ccccc34)n2)c1 | inactive
O=C(NCC1CCCO1)c1cccc(NC(=O)c2ccco2)c1 (stereo unspecified) | inconclusive: 11.2 µM [activator, partial curve, poor fit]
Cc1cccc(C)c1NC(=O)Cn1cc(C(=O)C2CC2)c2ccccc21 | inactive
O=C(CN1C(=O)COc2ccc(S(=O)(=O)N3CCCCCC3)cc21)N1CCN(c2ccc(Cl)cc2)CC1 | inactive
CN1/C(=C/C(=O)c2ccc(Cl)cc2)Sc2cc3c(cc21)OCO3 | inconclusive: 10 µM [activator, partial curve, poor fit]

Compound | Potency
COc1ccc(NC(=S)NCc2cccs2)c(OC)c1 | inconclusive: 25.1 µM [activator, single point]
COCCCn1c2nc3ccccc3nc2c2c(=O)n(-c3ccccc3OC)cnc21 | inconclusive: 0.0032 µM [activator, full curve, poor fit]
CSc1ccc(/C=C(\C#N)C(=O)Nc2cccc(C)c2)cc1 | inconclusive: 35.5 µM [activator, single point]
COc1ccc(OC)c(NC(=S)NCc2ccccc2OC)c1 | inconclusive: 17.8 µM [activator, single point]
CC1(C)CC(=O)c2sc(NC(=O)c3ccco3)nc2C1 | inconclusive: 17.8 µM [activator, single point]
Cc1ccc(OCCCn2c(-c3ccc(Cl)cc3)nc3ccccc3c2=O)cc1C | inactive
CCC(C)NC(=O)Cn1c(=O)n(-c2ccc(Cl)cc2)c(=O)c2c3c(sc21)CCCC3 (stereo unspecified) | inconclusive: 0.794 µM [activator, full curve, poor fit]
CCc1ccc(NC(=O)c2cnn3ccccc23)cc1 | active: 1.78 µM
Clc1ccc(-c2nnc(SCc3ccon3)o2)c(Cl)c1 | active: 2.82 µM
O=[N+]([O-])c1ccc(/C=N/Nc2nc(N3CCCCC3)nc(N3CCCCC3)n2)o1 | inconclusive: 3.55 µM [activator, single point]
Cc1ccc(C(=O)OCC(=O)N2CCc3ccccc32)cc1 | inactive
Cc1ccc(-c2cn3c(=O)cc(C)[nH]c3n2)cc1 | active: 10 µM
Cc1ccsc1C(=O)OCc1csc(-c2ccccc2)n1 | active: 15.8 µM
CCOc1cc2c(cc1OCC)C(C(=O)O)C(c1cc(OC)c(OC)c(OC)c1)N(C)C2=O (stereo unspecified) | inconclusive: 0.158 µM [activator, full curve, poor fit]
COc1cccc(-c2cc(C(=O)NC3CCCC3)no2)c1 | active: 11.2 µM
O=S(=O)(c1ccc(NC(=S)Nc2ccc(OC(F)F)cc2)cc1)N1CCOCC1 | inconclusive: 2.51 µM [activator, single point]
Cc1cccc(C(=O)NNC(=O)c2ccccc2)c1 | inconclusive: 5.62 µM [activator, partial curve, poor fit]
O=S(=O)(Nc1cccc(-c2ccc3nncn3n2)c1)c1cccs1 | inconclusive: 10 µM [activator, partial curve, poor fit]
N#C/C(=C\c1ccc(N2CCOCC2)o1)c1nc2ccccc2[nH]1 | active: 0.562 µM
CCCCCCCSc1nsc(N)n1 | inconclusive: 10 µM [activator, partial curve]
CCOc1ccc2nc(N3CCCC(C(=O)Nc4ccccc4CC)C3)sc2c1 (stereo unspecified) | inactive
c1ccc(Sc2ncnc3c2oc2ccccc23)cc1 | inconclusive: 7.94 µM [activator, partial curve, poor fit]
Fc1ccc2nc(N3CCOCC3)sc2c1 | inconclusive: 3.16 µM [activator, partial curve]
